# The other results are listed elsewhere or left out. Most values come without repeats; read them as rough.
# Experiments:
# Experiment in all cases: cell count relative to DMSO control; melanoma cells; higher = more viable cells
# Details in all cases: library dose: low library concentration; 72 h
# MZ2-MEL = system: MZ2-MEL
# MeWo = system: MeWo
# RPMI7951 = system: RPMI7951
# RVH-421 = system: RVH-421
# SkMel28 = system: SkMel28
# SkMel2 = system: SkMel2
# SkMel30 = system: SkMel30
# SkMel5 = system: SkMel5
# UACC257 = system: UACC257
# UACC62 = system: UACC62
# WM115 = system: WM115
# WM1716 = system: WM1716
# WM1745 = system: WM1745
# WM3526 = system: WM3526
# WM3619 = system: WM3619
# WM451Lu = system: WM451Lu
# 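Further: cell number obtained by counting DAPI-stained nuclei in high-throughput microscope images with image analysis software, screen run in 1,536-well plates.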
Compound,cell count (MZ2-MEL) [%],cell count (MeWo) [%],cell count (RPMI7951) [%],cell count (RVH-421) [%],cell count (SkMel28) [%],cell count (SkMel2) [%],cell count (SkMel30) [%],cell count (SkMel5) [%],cell count (UACC257) [%],cell count (UACC62) [%],cell count (WM115) [%],cell count (WM1716) [%],cell count (WM1745) [%],cell count (WM3526) [%],cell count (WM3619) [%],cell count (WM451Lu) [%]
"CN(c1ncccc1CNc1nc(Nc2ccc3c(c2)CC(=O)N3)ncc1C(F)(F)F)S(C)(=O)=O + Oc1nc(-c2ccc(C(F)(F)F)cc2)nc2c1CSCC2 [XAV939] (first compound 0.08 µM, partner dose 2 µM)",97.5,96.7,69.2,137,116,90.7,104,71.3,100,90.6,71.8,61.5,72.7,76,101,74.6
"C=C(c1ccc(C(=O)O)cc1)c1cc2c(cc1C)C(C)(C)CCC2(C)C [Bexarotene] + OCCn1cc(-c2cnc3nnn(Cc4ccc5ncccc5c4)c3n2)cn1 [PF04217903] (first compound 2 µM, partner dose 1 µM)",107,92.7,96.2,91.5,83.1,88.9,109,77.5,121,90.5,92.2,84.7,86.3,91.1,95.8,93.9
"CN(c1ncccc1CNc1nc(Nc2ccc3c(c2)CC(=O)N3)ncc1C(F)(F)F)S(C)(=O)=O + COc1cc(N2CCC(N3CCN(C)CC3)CC2)ccc1Nc1ncc(Cl)c(Nc2ccccc2S(=O)(=O)C(C)C)n1 [NVP-TAE684] (first compound 0.08 µM, partner dose 0.08 µM)",104,97.4,76.2,84.8,72.1,90.9,82.6,82.5,76.5,128,77.5,83.5,84.5,97.6,95.5,95.1
"CCCS(=O)(=O)Nc1ccc(F)c(C(=O)c2c[nH]c3ncc(Cl)cc23)c1F + COC(=O)c1sccc1S(=O)(=O)Nc1ccc(Nc2ccccc2)cc1OC [GSK0660] (first compound 0.08 µM, partner dose 1 µM)",86.2,92.9,107,104,70.4,90.2,89.6,107,90.1,54.2,87.8,126,80.2,60.3,95.4,103
"CCCS(=O)(=O)Nc1ccc(F)c(C(=O)c2c[nH]c3ncc(Cl)cc23)c1F + Cn1cc(/C=C2\C(=O)Nc3cccnc32)c2ccccc21 [GW441756] (first compound 0.08 µM, partner dose 0.4 µM)",87.8,92.4,96.6,81.1,72.2,98.2,108,99.1,91.5,63.4,97.5,115,90.9,73.4,85.9,98.7
"NC1(c2ccc(-c3nc4ccn5c(=O)[nH]nc5c4cc3-c3ccccc3)cc2)CCC1 + O=S(=O)(c1ccccc1)N(CC(F)(F)F)c1ccc(C(O)(C(F)(F)F)C(F)(F)F)cc1 [T0901317] (first compound 0.4 µM, partner dose 1.4 µM)",84.8,75.8,104,98.5,73.2,89.7,71.3,95.6,73.5,72.1,88.1,83.1,88.9,69,87,113
"C=C(c1ccc(C(=O)O)cc1)c1cc2c(cc1C)C(C)(C)CCC2(C)C [Bexarotene] + O=c1cc(-c2cccc3c2Sc2ccccc2S3)oc(N2CCOCC2)c1 [KU55933] (first compound 2 µM, partner dose 1 µM)",109,95.4,88.6,112,78.2,97,105,83.4,117,88.8,91.3,106,102,92.8,104,105
"CN(c1ncccc1CNc1nc(Nc2ccc3c(c2)CC(=O)N3)ncc1C(F)(F)F)S(C)(=O)=O + C[C@@H]1CCN(C(=O)CC#N)C[C@@H]1N(C)c1ncnc2[nH]ccc12 [CP690550] (first compound 0.08 µM, partner dose 1 µM)",95.2,99.4,75.9,102,108,99,93.8,83.1,86.6,89.2,91.8,94.4,88.9,106,101,83.3
"CN(c1ncccc1CNc1nc(Nc2ccc3c(c2)CC(=O)N3)ncc1C(F)(F)F)S(C)(=O)=O + Cn1cncc1[C@@](N)(c1ccc(Cl)cc1)c1ccc2c(c1)c(-c1cccc(Cl)c1)cc(=O)n2C [tipifarnib] (first compound 0.08 µM, partner dose 0.01 µM)",95.6,105,73.9,84.3,90.2,78,108,91.3,48.9,58,75,79.2,87,86.6,88.7,60.7
"NC1(c2ccc(-c3nc4ccn5c(=O)[nH]nc5c4cc3-c3ccccc3)cc2)CCC1 + Oc1cc(-c2nc(-c3ccccc3)[nH]c2-c2ccncc2)ccc1Cl [L779450] (first compound 0.4 µM, partner dose 0.2 µM)",69.1,108,104,91,66.6,88.4,69.1,114,73.4,74.4,103,111,109,76.3,79.5,102
"CCCS(=O)(=O)Nc1ccc(F)c(C(=O)c2c[nH]c3ncc(Cl)cc23)c1F + Cn1cncc1[C@@](N)(c1ccc(Cl)cc1)c1ccc2c(c1)c(-c1cccc(Cl)c1)cc(=O)n2C [tipifarnib] (first compound 0.08 µM, partner dose 0.01 µM)",104,87.8,93,77.8,80.3,83.1,121,112,53.6,62.1,87.7,81.6,88.1,67.2,104,74.5
"CN(c1ncccc1CNc1nc(Nc2ccc3c(c2)CC(=O)N3)ncc1C(F)(F)F)S(C)(=O)=O + NC(=O)Nc1cc(-c2cccc(F)c2)sc1C(=O)N[C@H]1CCCNC1 [AZD7762] (first compound 0.08 µM, partner dose 0.02 µM)",104,111,91,112,79.2,110,90.2,80.5,130,97.7,77.9,81.1,84.9,106,65.4,71.2
"NC1(c2ccc(-c3nc4ccn5c(=O)[nH]nc5c4cc3-c3ccccc3)cc2)CCC1 + O=C(O)c1ccc(-c2c[nH]c3ncc(-c4ccccc4)cc23)cc1C1CCCC1 [GSK650394] (first compound 0.4 µM, partner dose 0.16 µM)",93.2,76.4,113,83.1,63,89.5,105,102,88.8,82,84.8,95.9,91.2,70.5,103,98.2
"C=C(c1ccc(C(=O)O)cc1)c1cc2c(cc1C)C(C)(C)CCC2(C)C [Bexarotene] + Cc1ccc(NC(=O)c2cccc(N(C)C)c2)cc1NC(=O)c1ccc(O)cc1 [ZM336372] (first compound 2 µM, partner dose 2 µM)",77.6,91.9,77.7,68.9,71,100,89.7,78.9,84.4,94.2,88.5,101,88,92.5,84.5,89.9
"NC1(c2ccc(-c3nc4ccn5c(=O)[nH]nc5c4cc3-c3ccccc3)cc2)CCC1 + O=C(O)C(=O)Nc1sc2c(c1C(=O)O)CCNC2 [TCS401] (first compound 0.4 µM, partner dose 1.66667 µM)",94.8,94.3,101,91.4,79.7,78.5,106,86.5,87.9,71.7,77.2,83.8,73.3,66.3,92.6,105
"CS(=O)(=O)c1ccc(C(=O)Nc2ccc(Cl)c(-c3ccccn3)c2)c(Cl)c1 [vismodegib] + NC(=O)Nc1cc(-c2cccc(F)c2)sc1C(=O)N[C@H]1CCCNC1 [AZD7762] (first compound 1 µM, partner dose 0.02 µM)",108,86.7,112,125,76.2,110,96.9,102,138,106,98.7,113,103,83.7,59.7,89.9
"C=C(c1ccc(C(=O)O)cc1)c1cc2c(cc1C)C(C)(C)CCC2(C)C [Bexarotene] + COc1cc2c(Oc3ccc4[nH]c(C)cc4c3F)ncnc2cc1OCCCN1CCCC1 [cediranib] (first compound 2 µM, partner dose 0.4 µM)",104,99,85.6,115,77.4,95.6,152,83.1,94.5,104,92.4,88.6,90.2,110,90.1,74.6
"NC1(c2ccc(-c3nc4ccn5c(=O)[nH]nc5c4cc3-c3ccccc3)cc2)CCC1 + O=C(Nc1ccccc1)c1cc([N+](=O)[O-])ccc1Cl [GW9662] (first compound 0.4 µM, partner dose 2 µM)",88.8,94.8,85.3,107,88.9,101,110,81.1,79.1,72.8,93.2,98.2,79.9,71.4,109,104
"CS(=O)(=O)c1ccc(C(=O)Nc2ccc(Cl)c(-c3ccccn3)c2)c(Cl)c1 [vismodegib] + Oc1nc(-c2ccc(C(F)(F)F)cc2)nc2c1CSCC2 [XAV939] (first compound 1 µM, partner dose 2 µM)",97.4,95.4,87.3,98.8,73.1,97.1,110,78.8,77,84.7,89.2,59.8,82,111,95.1,98.1
